Laboratory results: PMC4944158
No constants are given. Whether binding was seen depends on the method and setting. For some of these results: Binding seen in cells or lysates may run through a third protein. Some results given as binding are weak or reduced against the parent protein; the word gives no strength. Blank lines part the entries; values can stand above or below the molecule they belong to.

Sequences of proteins named here, by UniProt entry; tags and fusion partners are left off. A change or cut given only in a name is not applied to a line headed by its entry. Residues count along the entry.
UniProt Q9JM13, residues 396-491: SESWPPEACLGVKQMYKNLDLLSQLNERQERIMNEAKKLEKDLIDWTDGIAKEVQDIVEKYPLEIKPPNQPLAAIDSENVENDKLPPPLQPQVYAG
UniProt Q62848, residues 137-415: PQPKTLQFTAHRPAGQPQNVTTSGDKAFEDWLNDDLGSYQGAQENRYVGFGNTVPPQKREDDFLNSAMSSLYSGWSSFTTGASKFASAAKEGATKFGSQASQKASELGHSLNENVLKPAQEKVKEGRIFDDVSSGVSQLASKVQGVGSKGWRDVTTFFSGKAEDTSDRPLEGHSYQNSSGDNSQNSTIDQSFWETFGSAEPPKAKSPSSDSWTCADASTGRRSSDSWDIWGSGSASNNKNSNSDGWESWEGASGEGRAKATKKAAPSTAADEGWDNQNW
UniProt P22892: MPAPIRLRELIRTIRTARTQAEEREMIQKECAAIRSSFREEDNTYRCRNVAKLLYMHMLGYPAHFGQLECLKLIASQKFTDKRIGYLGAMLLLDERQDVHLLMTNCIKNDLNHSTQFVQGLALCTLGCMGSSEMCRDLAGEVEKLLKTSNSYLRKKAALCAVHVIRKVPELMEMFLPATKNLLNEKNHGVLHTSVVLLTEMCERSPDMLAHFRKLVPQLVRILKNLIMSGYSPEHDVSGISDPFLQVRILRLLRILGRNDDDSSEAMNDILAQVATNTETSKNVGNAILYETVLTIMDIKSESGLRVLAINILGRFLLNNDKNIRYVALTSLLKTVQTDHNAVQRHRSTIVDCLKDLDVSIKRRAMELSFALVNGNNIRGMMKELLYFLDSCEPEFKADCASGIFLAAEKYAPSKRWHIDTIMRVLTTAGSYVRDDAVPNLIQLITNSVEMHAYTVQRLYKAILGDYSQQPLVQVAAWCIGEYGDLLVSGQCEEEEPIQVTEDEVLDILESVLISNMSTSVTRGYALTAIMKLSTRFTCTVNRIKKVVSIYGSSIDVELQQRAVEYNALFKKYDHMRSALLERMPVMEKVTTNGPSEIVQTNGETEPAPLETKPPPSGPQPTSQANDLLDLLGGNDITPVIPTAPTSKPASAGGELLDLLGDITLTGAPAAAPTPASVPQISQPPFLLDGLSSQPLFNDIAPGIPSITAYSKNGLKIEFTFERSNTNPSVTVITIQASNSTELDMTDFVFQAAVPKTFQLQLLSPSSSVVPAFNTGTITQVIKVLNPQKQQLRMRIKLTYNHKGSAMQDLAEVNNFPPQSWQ
UniProt Q9EPJ9: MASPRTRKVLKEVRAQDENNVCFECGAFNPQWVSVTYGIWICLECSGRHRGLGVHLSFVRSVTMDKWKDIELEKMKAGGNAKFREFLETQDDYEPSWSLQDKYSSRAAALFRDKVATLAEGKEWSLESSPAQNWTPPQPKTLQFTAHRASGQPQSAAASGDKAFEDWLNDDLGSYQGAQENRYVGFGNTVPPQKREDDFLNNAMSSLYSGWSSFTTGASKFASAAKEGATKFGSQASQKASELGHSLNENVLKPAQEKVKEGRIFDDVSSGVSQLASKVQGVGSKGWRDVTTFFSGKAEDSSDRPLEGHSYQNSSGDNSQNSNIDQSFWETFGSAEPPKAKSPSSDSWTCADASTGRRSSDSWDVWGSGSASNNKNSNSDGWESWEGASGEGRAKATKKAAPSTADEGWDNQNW

Tests used:
[1] = target: GST-Rabex-5 C-terminal aa396-491 domain (UniProt Q9JM13); assay: pull-down; E. coli-expressed Rabex-5 used to isolate E. coli-expressed ArfGAP1 brain and ubiquitous isoforms; Western blot
[2] = target: 6His-ArfGAP1^U C-terminal domain (UniProt Q62848); assay: pull-down; 6His-ArfGAP1 domains on Ni-NTA agarose beads incubated with supernatants of homogenised synaptosomes of wt and σ1B −/− mouse brains, 4 hours at RT, PBS; Western blot (anti-γ1); only the target purified
[3] = target: Rabex-5/ArfGAP1^U complex (UniProt Q9JM13); assay: pull-down; consecutive pull-down: Rabex-5/ArfGAP1 complexes formed first on beads, then incubated with wt and σ1B −/− synaptosome extracts; anti-γ1 Western blot; only the target purified
[4] = target: T1, RabGAP5 (endogenous) (mouse (endogenous in MEF cells)) (UniProt Q8VCZ6); assay: proximity ligation; PLA in fixed (4% PFA) wt, σ1B −/− and μ1A −/− MEF cell lines; anti-γ1 with anti-Rab5, anti-Rabex-5 or anti-RabGAP5
T1 sequence: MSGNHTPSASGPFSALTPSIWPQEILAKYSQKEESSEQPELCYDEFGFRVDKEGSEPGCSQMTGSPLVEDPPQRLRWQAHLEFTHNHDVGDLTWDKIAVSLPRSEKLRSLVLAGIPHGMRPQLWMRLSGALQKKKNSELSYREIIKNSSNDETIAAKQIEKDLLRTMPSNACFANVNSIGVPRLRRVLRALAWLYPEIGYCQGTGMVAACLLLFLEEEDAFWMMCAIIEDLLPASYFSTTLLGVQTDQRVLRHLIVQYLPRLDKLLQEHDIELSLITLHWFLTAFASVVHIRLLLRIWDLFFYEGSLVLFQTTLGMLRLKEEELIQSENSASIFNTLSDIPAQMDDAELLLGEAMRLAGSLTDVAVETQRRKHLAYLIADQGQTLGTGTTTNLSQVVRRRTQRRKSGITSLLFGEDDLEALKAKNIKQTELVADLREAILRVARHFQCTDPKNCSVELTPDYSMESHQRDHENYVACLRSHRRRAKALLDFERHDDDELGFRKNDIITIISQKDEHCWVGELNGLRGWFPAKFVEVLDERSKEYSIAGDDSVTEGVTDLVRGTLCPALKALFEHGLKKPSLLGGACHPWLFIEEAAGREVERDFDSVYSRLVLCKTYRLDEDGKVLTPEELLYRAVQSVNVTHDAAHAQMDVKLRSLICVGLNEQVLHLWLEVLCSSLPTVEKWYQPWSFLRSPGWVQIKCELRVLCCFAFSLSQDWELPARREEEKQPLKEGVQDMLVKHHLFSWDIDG

[5] = target: GST-Rabex-5 C-terminal aa396-491 domain (UniProt Q9JM13); assay: pull-down; GST fusion on Glutathione Sepharose beads incubated with supernatants of homogenised synaptosomes of wt and σ1B −/− mouse brains, 4 hours at RT, PBS; Western blot; only the target purified
[6] = target: Rabex-5 C-terminal aa 396-491 (Gal4 DNA-binding domain fusion) (UniProt Q9JM13); assay: two-hybrid; yeast three-hybrid (Y3H): γ1 core (1-550) as Gal4 AD fusion, σ1-adaptin free, tested protein or domain as Gal4 BD fusion; yeast strain AH109, growth and interaction assays
[7] = target: ArfGAP1^U C-terminal domain (aa 137-415) (Gal4 DNA-binding domain fusion) (UniProt Q62848); assay: as above

binding [1]: binds
Molecule: 6His-ArfGAP1^U C-terminal domain (from UniProt Q62848 137-415) (domain or fragment)

binding [2]: binds
binding [3]: binds
binding [4]: binds
Molecule: AP-1/σ1A complexes of σ1B −/− mice (from UniProt P22892 1-822; O35643 1-943; P35585 1-423; P61967 1-158)

binding [5]: binds
Molecule: ubiquitous ArfGAP1^U (endogenous) (from UniProt Q9EPJ9 1-414)

binding [6]: no binding
binding [7]: binds weakly
Molecule: γ1/σ1A hemicomplex (γ1 N-terminal core domain 1-550 with σ1A) (from UniProt P22892 1-550; P61967 1-158)

binding [6]: binds
binding [7]: binds weakly
Molecule: γ1/σ1B hemicomplex (γ1 N-terminal core domain 1-550 with σ1B) (from UniProt P22892 1-550; Q9DB50 1-160)

binding [5]: binds
B1: Rabaptin-5α (protein, UniProt O35551 1-862)
chain: MAQPGPAPQPDVSLQQRVAELEKINAEFLRAQQQLEQEFNQKRAKFKELYLAKEEDLKRQNAVLQAAQDDLGHLRTQLWEAQAEMENIKAIATVSENTKQEAIDEVKRQWREEVASLQAIMKETVRDYEHQFHLRLEQERAQWAQYRESAEREIADLRRRLSEGQEEENLENEMKKAQEDAEKLRSVVMPMEKEIAALKDKLTEAEDKIKELEASKVKELNHYLEAEKSCRTDLEMYVAVLNTQKSVLQEDAEKLRKELHEVCHLLEQERQQHNQLKHTWQKANDQFLESQRLLMRDMQRMEIVLTSEQLRQVEELKKKDQEEDEQQRVNKRKDNKKTDTEEEVKIPVVCALTQEESSTPLSNEEEHLDSTHGSVHSLDADLMLPSGDPFSKSDNDMFKDGLRRAQSTDSLGTSSSLQSKALGYNYKAKSAGNLDESDFGPLVGADSVSENFDTVSLGSLQMPSGFMLTKDQERAIKAMTPEQEETASLLSSVTQGMESAYVSPSGYRLVSETEWNLLQKEVHNAGNKLGRRCDMCSNYEKQLQGIQIQEAETRDQVKKLQLMLRQANDQLEKTMKEKQELEDFLKQSAEDSSHQISALVLRAQASEVLLEELQQSFSQAKRDVQEQMAVLMQSREQVSEELVRLQKDNDSLQGKHSLHVSLQLAEDFILPDTVEVLRELVLKYRENIVHVRTAADHMEEKLKAEILFLKEQIQAEQCLKENLEETLQLEIENCKEEIASISSLKAELERIKVEKGQLESTLREKSQQLESLQEMKVNLEEQLKKETAAKATVEQLMFEEKNKAQRLQTELDVSEQVQRDFVKLSQTLQVQLERIRQADSLERIRAILNDTKLTDINQLPET
